Some of the results follow.
T1: UNK ZnF1-3 (human, UniProt Q9C0B0 31-174)
T1 sequence: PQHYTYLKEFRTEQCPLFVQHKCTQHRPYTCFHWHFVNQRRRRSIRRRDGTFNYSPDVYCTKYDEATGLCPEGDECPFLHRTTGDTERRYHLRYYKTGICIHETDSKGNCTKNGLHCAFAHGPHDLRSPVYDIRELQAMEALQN

B1: chr3:150289932:150289933:+_ENSG00000144895_ENST00000460851|hu_hu|hu_hu_hu_mus_False|28_28 (ssRNA)
RNA: GGGAGUUCUACAGUCCGACGAUCCUUGUAGUUUUUAACAUCCCAUACUUCCAUUUGUCCUCGAAGAUUUCCAAAUCCAGCCAGCACUAAUAUAUGUCCAUGAGGGCUAUAGUAGGCUGCGUUGCGAGGACCAGUCCCAAAGUCCAACAGAGGAUUGAGCAUCA
B2: chr3:176767854:176767855:-_ENSG00000177565_ENST00000430069|hu_hu|hu_hu_hu_mus_False|28_58 (ssRNA)
RNA: GGGAGUUCUACAGUCCGACGAUCGACAUCCUUGUUACUGGGCACGUCCUGCCCUCCUUCCCGUAUGCAGUGUCUAAGUACUAACUGCGUAGGGCCACUCGUGCUGUUCUCACUAAGGUUCCAGAUUCUUGCCGUGGAGUCUCCCAACAGAGGAUUGAGCAUCA
B3: chr1:225611761:225611762:-_ENSG00000143815_ENST00000272163|hu_mus|hu_hu_hu_mus_True|58_98 (ssRNA)
RNA: GGGAGUUCUACAGUCCGACGAUCCCAGGCCAUCGGCCUCUUACCACUUCACCCUCAACAAACUUCCUACUUGGCAUUUUCUAUAAUUAGUCUGGCCGCGCUCCGGCGGGAACUCCAGCCACUCCAGGACAGUCACCAGCAGCCCAACAGAGGAUUGAGCAUCA
B4: chr11:46405157:46405158:+_ENSG00000110492_ENST00000395566|hu_hu|hu_hu_hu_mus_False|8_8 (ssRNA)
RNA: GGGAGUUCUACAGUCCGACGAUCCCCUCCCCACUUUGGGCACUUGGUGUGGGCGUGAGAGGACAGGCGUGAUUGACAGAGCUGACAGGAAGACAAAAGGCACUGGUGGGUUAUAUCUUGGGCCUGUGAGAGGGAGGGGCUCCGCAACAGAGGAUUGAGCAUCA
B5: chr10:126501906:126501907:+_ENSMUSG00000006728_ENSMUST00000133115|mus_hu|FALSE|FALSE (ssRNA)
RNA: GGGAGUUCUACAGUCCGACGAUCCUUCAGAUCUCGGUGAACGAUGCAAUUGGCAUGAAGGAAAUCUAGGCCUCUUAGAAACUGGCGCAUCAGAUCCUUGAUCGUUUCGGCUGGCAAGCCUGGUGGGGGUGCCUUGUCCAGAUACAACAGAGGAUUGAGCAUCA
B6: chr18:9257185:9257186:+_ENSG00000101745_ENST00000400020|hu_mus|FALSE|FALSE (ssRNA)
RNA: GGGAGUUCUACAGUCCGACGAUCUUGGAAAUGUUUUAUGGGCUCACAGAUAACUGAGGGCAUACUGCAUCUUCUAAUUUCUACAGCAGGUCUUACCUCAUUAGUAAUUAGUUUAACAUCUUCCACAGAAGAUGACCUGAGAUGCAACAGAGGAUUGAGCAUCA
B7: chr5:137537078:137537079:-_ENSG00000094880_ENST00000394886|hu_hu|motif|central (ssRNA)
RNA: GGGAGUUCUACAGUCCGACGAUCAAAUCCAUCAAGUUCUCGAGCUUGGUGUUUUUUGCUGAGCUCCACUCUCAAUUCUCGGAGCGCCUCAUUUUUCACUUGUCCUUUUUCCAGGGGGCCUAAGCUAUCAACUGUUUCAUCGUCCAACAGAGGAUUGAGCAUCA
B8: chr14:76904430:76904431:+_ENSMUSG00000022010_ENSMUST00000022587|mus_mus|mus_mus_mus_hu_True|68_78 (ssRNA)
RNA: GGGAGUUCUACAGUCCGACGAUCUGCAGCCAAAAACACCCUCGUGGAAAAAAAGAGCAAGCUCCAGCAGCCUGGUUUAAGCUAGAUAAAAUCUUCUGGCUUUCCGCAGCCCAGGGAGAAACAGAAAACGGCAGCCCUAAUUUACAACAGAGGAUUGAGCAUCA
B9: chr14:59836542:59836543:+_ENSMUSG00000035469_ENSMUST00000043227|mus_hu|motif|central (ssRNA)
RNA: GGGAGUUCUACAGUCCGACGAUCCCAAGCAAACACCUCUCCAUCAGCUGCCAGAGCCAUUGAAUGAUGUGAGCCACAAGCGGCUUCCACCACUUGCUUGAUCAAGAGAUUGGUACAGACCUGGACGGGAGCAAUGCCUUGGUUCAACAGAGGAUUGAGCAUCA
B10: chr11:32953859:32953860:+_ENSG00000060749_ENST00000399302|hu_hu|FALSE|FALSE (ssRNA)
RNA: GGGAGUUCUACAGUCCGACGAUCAUCUCCAAUUGGGCUACAGGAUAAAGAUGACUGCCUGGUUGUUUCCUGAAAAUUAACUACACUUGAAUUUGAUAGAUAACUAUGUAAGGAGUGCUGUGAACCAGUCAGUUGUGCCUGAAUCAACAGAGGAUUGAGCAUCA
B11: chr11:87793471:87793472:-_ENSMUSG00000020483_ENSMUST00000020775|mus_mus|mus_mus_mus_hu_False|18_78 (ssRNA)
RNA: GGGAGUUCUACAGUCCGACGAUCUGGACUUGAAAAUAAAAGAAUAAGCUGGAUCCCCCCACCCCUUACAUUGUCAACCCUACACGAGAGUUUUGAAGGCGACUCAUGAAAAUCAGCCUCAAUUGGCGCAAUGACCACCCCACCCAACAGAGGAUUGAGCAUCA
B12: chr3:97503841:97503842:+_ENSG00000113966_ENST00000463745|hu_hu|motif|central (ssRNA)
RNA: GGGAGUUCUACAGUCCGACGAUCAUCUGGAUGAUUCAGAAGAGUAUCGAGUUCUUCUUUGGCCACAACCAUUCUUAAUCGGUCACGGCUAUCAAUGACAAAAAUAAUAGCUUGGCCUUCUUUAUAAUAGUGUUCCCAGAGAUUCAACAGAGGAUUGAGCAUCA
B13: chr1:60041781:60041782:+_ENSMUSG00000041040_ENSMUST00000036540|mus_hu|mus_mus_mus_hu_False|1_78 (ssRNA)
RNA: GGGAGUUCUACAGUCCGACGAUCAAGUUUACAAUAGUAAAGUAAAUGCAGUAGUGGAAUGGCAAGUUUUAUUUUCCUUCACAAAAGAAAAUCUUUAUAACCCAGUCCUAGUCUUGGACAUAGUGAAAGCUAUAAAUGCCACUGCAACAGAGGAUUGAGCAUCA
B14: chr7:135832113:135832114:+_ENSMUSG00000042105_ENSMUST00000118605|mus_mus|FALSE|FALSE (ssRNA)
RNA: GGGAGUUCUACAGUCCGACGAUCACAGGAAAAAUACAGCCCCACUGGCACUUUAACCAUAAGUCCUGCAAAAAGAAGGAAAAUCUUAAAAGUCAUGGCGAGAACGCCAUCGGACUUAGGUUCCGCAGCGUUGGCAGCUGGAGCCAACAGAGGAUUGAGCAUCA
B15: chr12:121221538:121221539:-_ENSG00000157837_ENST00000353487|hu_mus|FALSE|FALSE (ssRNA)
RNA: GGGAGUUCUACAGUCCGACGAUCGAGGUGAGCAGGGCCUUGUUAAAUACUGGCACAUCGGGAGAAGAAGAAAAGCAAAAGCUAUUGUUGCAAGAACUGCUGUACAUAUUGUGAAAACGACUUGAACUGAAUCAAAGAAGAAGACAACAGAGGAUUGAGCAUCA
B16: 30750662_30751217_4568_CDS_ENSMUSG00000040850_ENSMUST00000041231|mouse|control|control (ssRNA)
RNA: GGGAGUUCUACAGUCCGACGAUCCCCCCCUUCACCACUCAAUGGUGACUCCAAGAGCAGCUCAAAAAGCCAGUGAAGCUUCCGGGGAUCUCUGCUUUCACAGGAAGUGGCUAUACAGGUCCCCCAGUCAUUGUAUGUCUCCACCAACAGAGGAUUGAGCAUCA
B17: chr2:47387792:47387793:-_ENSG00000143933_ENST00000272298|hu_hu|hu_hu_hu_mus_True|18_38 (ssRNA)
RNA: GGGAGUUCUACAGUCCGACGAUCUAAGGACAAUGACAGUAAGAUAAGGGAAGAAAACAUGGAGGAAUGAAGUCCUAAUUACUAUACAUGCAUAUUUUUUUGACAGUGGGGGGGGGACUUUUACAGAGAUAAGUUACAAACAAACAACAGAGGAUUGAGCAUCA
B18: 119742188_119742308_1329_CDS_ENSMUSG00000033943_ENSMUST00000110774|mouse|control|control (ssRNA)
RNA: GGGAGUUCUACAGUCCGACGAUCCACUGUUAUCCCUUCUGGGCAUUCACCAAGUUCAUAAUCAUAAUCAUCUAGAGGCUCUUCUUUAAUGACGACAUUAAAGUUUCCAUUCGGGUUUGAUGGUGAGGAAAUCUGGGAAUCAUCCAACAGAGGAUUGAGCAUCA
B19: chr1:149875238:149875239:-_ENSG00000159164_ENST00000369146|hu_hu|FALSE|FALSE (ssRNA)
RNA: GGGAGUUCUACAGUCCGACGAUCUUUUGUUAUUUUCACUUUUUUCCUUUUAACAUUUUUUUAAACAUUUUACAAACAUCUAAAAACUACAACACGUCACAGCUACAGUGGGGUGAGGGGAGGGCACCAAAGAAAGCAGCCACACAACAGAGGAUUGAGCAUCA
B20: chr6:50807893:50807894:+_ENSG00000008196_ENST00000393655|hu_mus|motif|central (ssRNA)
RNA: GGGAGUUCUACAGUCCGACGAUCCUCGGACACGGCUUUAGCAGGAAACUCUGUUUCACAAAUAUACCCGAAAUCCCGAGCGGAGUGAACAGCUUCCCCUUCUACCAGUGAGGUGAGUAACGUGACAUUUGCUGCUUUGCGCCUCAACAGAGGAUUGAGCAUCA
B21: chr10:104572449:104572450:+_ENSG00000166272_ENST00000448841|hu_mus|FALSE|FALSE (ssRNA)
RNA: GGGAGUUCUACAGUCCGACGAUCAGCGCCUGGGGGGCUGCCACCUGGAGGGCCACCCUGAGGAGGAGGUGGCAGCAGCUGCUGCUGCUGUUGGAGCUGGAAGGCACUGUACGGUGGGGGAGGAGUUGGAGGUCGGUUCACCACCAACAGAGGAUUGAGCAUCA
B22: chr3:44794862:44794863:-_ENSG00000163807_ENST00000296121|hu_mus|motif|central (ssRNA)
RNA: GGGAGUUCUACAGUCCGACGAUCGUCCACAAUAUUCAUAUUUACUCAUUUUCAUCUUCACUGUCAAAAGAAAGGAGACUGCGGUUUUUUAUUUGUUUUUGUGAGUUCUUUCUAACUGAACUUUGCUUAUUUACAUCAUCUUCACAACAGAGGAUUGAGCAUCA

Target: T1, UNK ZnF1-3
Assay: nsRBNS (natural sequence RNA bind-n-seq); RBNS binding buffer (assumed for nsRBNS): 25 mM Tris pH 7.5, 150 mM KCl, 3 mM MgCl2, 0.01% Triton X-100, 500 ug/ml BSA, 20 U/ml SUPERase-In, 4 C; UNK is unkempt and MSI1 is Musashi-1; names of the RNAs are library labels; protein concentration not given here; high values mean tight binding

Binder | binding signal [enrichment R]
B1 | 0.876
B2 | 0.664
B3 | 1.4
B4 | 2.34
B5 | 0.775
B6 | 0.838
B7 | 0.525
B8 | 1.95
B9 | 1.13
B10 | 1.28
B11 | 1.6
B12 | 0.839
B13 | 0.739
B14 | 1.03
B15 | 2.46
B16 | 0.867
B17 | 2.41
B18 | 1.15
B19 | 1.23
B20 | 0.794
B21 | 2.24
B22 | 0.777
